Values joined by “and” are separate entries in the source; they are usually repeats but may differ in a detail not shown here. Identical values can stand only once. Inconclusive means that the source gave no clear call. Such entries were picked first, then a sample of the others. Potencies beside an inconclusive call are fits to weak or partial responses and may not hold up. Active and inactive are the calls of the source. Calls come from the whole dose curve; as a rule, active = well fitted curve in the direction sought with a large enough effect in the repeat runs; inconclusive = weak or mixed curves; inactive = no such curve, though single readings can be large; an effect the other way counts as inactive or inconclusive.
target: Voltage-gated inwardly rectifying potassium channel KCNH2 (Homo sapiens) (UniProt Q12809); test: Human Ether-a-go-go-Related Gene (hERG) channel small molecule antagonists: fluorescence cell-based qHTS assay (AID 1671200); conditions: hERG-U2OS cells, FluxOR thallium flux fluorescence; series mostly up to 76.8 µM; activity change, negative = inhibition: at the top concentration
UniProt Q12809, sequence (Q12809 whole entry, looked up): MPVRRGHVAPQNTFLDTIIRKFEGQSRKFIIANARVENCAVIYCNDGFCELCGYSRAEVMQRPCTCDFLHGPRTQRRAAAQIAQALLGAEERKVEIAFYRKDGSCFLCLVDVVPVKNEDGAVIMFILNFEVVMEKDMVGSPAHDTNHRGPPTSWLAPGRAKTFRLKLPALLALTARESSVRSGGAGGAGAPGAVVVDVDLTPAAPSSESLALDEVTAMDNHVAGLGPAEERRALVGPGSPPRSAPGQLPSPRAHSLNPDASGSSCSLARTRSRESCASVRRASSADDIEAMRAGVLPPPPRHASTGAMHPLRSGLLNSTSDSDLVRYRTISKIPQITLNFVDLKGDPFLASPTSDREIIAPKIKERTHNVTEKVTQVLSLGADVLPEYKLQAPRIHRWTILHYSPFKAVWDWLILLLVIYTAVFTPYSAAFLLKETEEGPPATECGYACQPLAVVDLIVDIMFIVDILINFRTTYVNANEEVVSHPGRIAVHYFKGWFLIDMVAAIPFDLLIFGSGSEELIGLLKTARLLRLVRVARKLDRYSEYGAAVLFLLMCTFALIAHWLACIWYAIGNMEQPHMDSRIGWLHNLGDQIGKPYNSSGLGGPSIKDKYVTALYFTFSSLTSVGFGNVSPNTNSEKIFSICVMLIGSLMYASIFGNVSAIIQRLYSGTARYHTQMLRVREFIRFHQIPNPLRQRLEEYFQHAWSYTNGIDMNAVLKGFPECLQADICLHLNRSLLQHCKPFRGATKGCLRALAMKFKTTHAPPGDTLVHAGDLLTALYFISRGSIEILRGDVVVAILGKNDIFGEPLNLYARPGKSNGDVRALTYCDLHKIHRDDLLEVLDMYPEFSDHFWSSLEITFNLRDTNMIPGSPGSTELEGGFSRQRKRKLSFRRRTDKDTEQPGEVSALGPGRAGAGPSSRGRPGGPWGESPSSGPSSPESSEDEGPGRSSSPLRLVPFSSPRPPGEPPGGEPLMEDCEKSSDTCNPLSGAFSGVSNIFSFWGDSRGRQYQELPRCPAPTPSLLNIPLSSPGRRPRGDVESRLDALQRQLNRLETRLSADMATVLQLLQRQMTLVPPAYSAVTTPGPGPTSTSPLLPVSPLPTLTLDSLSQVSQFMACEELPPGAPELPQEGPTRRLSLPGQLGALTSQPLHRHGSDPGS
Procedure, shortened: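 U2OS cells expressing the channel were plated at 1000 cells/well, incubated overnight at 37 C, then loaded with FluxOR II thallium-sensitive dye for 1 h at room temperature in the dark, with a further 10 min at room temperature before stimulation.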
Note: nearly all actives have a fitted effect of over 50% in size.
Potency is the fitted concentration of half-maximal effect; tags give direction and shape of the fitted curve.

Compound	Potency
CCCCC(CC)COC(=O)c1ccc(O)cc1 (configuration not stated)	inconclusive: 24.5 µM [inhibitor] and inconclusive: 43.6 µM [inhibitor, partial curve]
CCCCCCC(C)Nc1ccc(Nc2ccccc2)cc1 (configuration not stated)	inconclusive: 24.5 µM [inhibitor, full curve]
NCc1cccc(C2CCN(C(=O)c3ccc(C#Cc4ccccc4F)o3)CC2)c1	active: 11 µM

target: Cytochrome P450 3A4 (Homo sapiens) (UniProt P08684); test: Cytochrome P450 Family 3 Subfamily A Member 4 (CYP3A4) small molecule antagonists: luciferase reporter qHTS assay (AID 1671201); conditions: P450-Glo CYP3A4 enzyme, luciferin luminescence, 1 h; series mostly up to 115 µM; activity change, negative = inhibition: at the top concentration; for activity change, negative = inhibition: % is set by controls: 0 for no effect and ±100 for the full control effect
UniProt P08684, sequence (P08684 whole entry, looked up): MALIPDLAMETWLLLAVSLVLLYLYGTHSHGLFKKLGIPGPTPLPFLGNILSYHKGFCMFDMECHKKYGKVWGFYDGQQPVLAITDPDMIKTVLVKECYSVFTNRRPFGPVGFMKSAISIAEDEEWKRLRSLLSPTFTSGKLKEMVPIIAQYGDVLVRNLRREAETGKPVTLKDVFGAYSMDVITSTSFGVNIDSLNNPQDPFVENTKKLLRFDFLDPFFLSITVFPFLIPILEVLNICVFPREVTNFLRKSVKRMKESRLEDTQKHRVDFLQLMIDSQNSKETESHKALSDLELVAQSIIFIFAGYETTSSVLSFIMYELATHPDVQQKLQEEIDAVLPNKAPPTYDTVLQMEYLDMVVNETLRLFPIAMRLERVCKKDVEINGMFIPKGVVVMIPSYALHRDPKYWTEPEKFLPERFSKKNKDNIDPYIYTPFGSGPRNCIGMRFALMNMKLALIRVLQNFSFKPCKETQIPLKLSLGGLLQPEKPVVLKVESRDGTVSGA
Procedure, shortened: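 P450-Glo CYP3A4 system with proluciferin substrate; compounds preincubated 10 min RT with enzyme-substrate mix, then NADPH regeneration added for 1 h RT. Detection reagent 20 min, luminescence read as relative luminescence units.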

Compound	Potency	activity change, negative = inhibition
CCCCC(CC)COC(=O)c1ccc(O)cc1 (configuration not stated)	inconclusive: 79.6 µM [inhibitor, single point]	
Cc1cc2nc3c(=O)[nH]c(=O)nc-3n(C[C@H](O)[C@H](O)[C@H](O)CO)c2cc1C	inactive	
CCCCCCCCCCCCN(CCO)CCO		inactive: -13.7%
CCCCCCC(C)Nc1ccc(Nc2ccccc2)cc1 (configuration not stated)	active: 35.6 µM	
O=C1CN(/N=C/c2ccc([N+](=O)[O-])o2)C(=O)N1	inactive	
COc1ccc(N)c(C)c1	inconclusive: 35.6 µM [inhibitor, partial curve]	
NCc1cccc(C2CCN(C(=O)c3ccc(C#Cc4ccccc4F)o3)CC2)c1	active: 5.64 µM	
O=C1NC(=O)c2cc([N+](=O)[O-])ccc21	active: 32 µM	
c1ccc2[nH]ccc2c1		inactive: -1.01% [at 52.9 µM]
